Data taken from ChEMBL document CHEMBL1201862, “PubChem BioAssay data set” (2004).

Test system: NCI-H322M
Experiment: NCI anticancer screen, dose series, 48 h

| SMILES | GI50 |
| --- | --- |
| CC12CC3OC(=O)C1COC14OC5(C2C1=O)C(O)(CCC1C4CC2OC24CC=CC(=O)C14C)C(=O)OC35C (stereo not drawn) | inactive: 30.5 µM |
| Nc1ccc(S(=O)(=O)Nc2nnc(S(N)(=O)=O)s2)cc1 | inactive: > 100 µM |
| CC1C(C)(C)C23CC12C1(OCCO1)C3Br (stereo not drawn) | inactive: > 100 µM |
| CCCNC(=O)c1cc(NC(=O)c2cc(NC(=O)/C=C/c3ccccc3)c(OC)c(OC)c2)c(OC)c(OC)c1 | inactive: 5.51 µM |
| COc1ccc(C(=O)N2CCN(c3ccc4c(c3)OCC(=O)N4)CC2)cc1OC | inactive: > 100 µM |
| OC(COc1ccc(Cl)cc1Cl)CN1CCCC1 (stereo not drawn) | inactive: > 100 µM |
| CC(C)(C)C(=O)N(C(=S)OCc1ccccn1)c1ccccc1 | inactive: 66.5 µM |
| C=C1C(=O)O[C@@]23C1CC[C@@H](C)C2CC[C@@]1(C)OC31 (stereo partly drawn) | inactive: 17.6 µM |
| CCN(CC)C1CC(O[C@H]2C[C@](O)(C(=O)CO)Cc3c(O)c4c(c(O)c32)C(=O)c2c(OC)cccc2C4=O)OC(C)C1O (stereo partly drawn) | active: 0.0148 µM |
| Cc1cc(CC(O)c2ccc(Cl)c(Cl)c2)nc(O)n1 (stereo not drawn) | inactive: 88.5 µM |
| O=C(CSc1nnc(-c2ccccn2)s1)N/N=C/c1ccc([N+](=O)[O-])cc1 | inactive: > 100 µM |
| CS(=O)(=O)OC1CN2CCC1CC2 (stereo not drawn) | inactive: > 100 µM |
| COC(=O)c1ccccc1C1CN=NC12Cc1c(ccc3c1CCC3)C2=O (stereo not drawn) | inactive: > 100 µM |
| Cn1c(=O)n2n(c1=O)C([S+]([O-])c1ccccc1)C2 (stereo not drawn) | inactive: > 100 µM |
| CN(C)CC1CCC/C(=C\c2ccc(Cl)cc2)C1=O (stereo not drawn) | inactive: 15.2 µM |
| COC(=O)/C(=N\NC(=O)c1ccccc1O)C(C#N)c1ccc(Cl)cc1 (stereo not drawn) | inactive: 56.4 µM |
| CC(C)(C)c1cc(CCC(=O)Nc2ccc(Cl)cc2)nc(S)n1 | inactive: > 100 µM |
| COc1ccc(-n2cnn3c(=O)c4cn[nH]c4nc23)cc1 | inactive: > 10 µM |
| O=C1/C(=C/c2ccccc2)CCC/C1=C\c1ccc(O)c(CN2CCCCC2)c1 | inactive: 6.03 µM |
| N#CC1C(=O)NC2=C(CCOc3c2ccc2ccccc32)C1c1ccc(F)cc1 (stereo not drawn) | inactive: 59.2 µM |
| O=C(/C=C/c1cccc([N+](=O)[O-])c1)c1ccc([N+](=O)[O-])cc1 | inactive: > 100 µM |

| SMILES | GI50 |
| --- | --- |
| COCCNC(=O)C1C(=O)N(CCOC)C(=O)/C1=N/N (stereo not drawn) | inactive: > 100 µM |
| NC(=O)c1cn(C2OC(CO)C(O)C2O)c2nc[n+]([O-])c(N)c12 (stereo not drawn) | active: 0.174 µM |
| Cc1cn(C2CC(N=[N+]=[N-])C(COP(=O)(O)OCC3OC(n4cc(F)c(=O)[nH]c4=O)CC3O)O2)c(=O)[nH]c1=O (stereo not drawn) | inactive: > 100 µM |
| C/C=C/C(=O)Oc1cccc2cccnc12 | inactive: 25.5 µM |
| O=c1cc(-c2ccccc2)[nH]c2cc(Cl)cc(Cl)c12 | inactive: 58.6 µM |
| CCCCc1nc(C)oc1C(C)C | inactive: > 100 µM |
| CC(/C=C1\CCC(CN(C)C)C1=O)c1cccc(Br)c1 (stereo not drawn) | inactive: 19.2 µM |
| Oc1c(-c2ccccc2)sc2ccccc12 | inactive: 19.8 µM |
| CC1=CC(O)C(O)C2(C)C1CC1OC(=O)C(O)C3C(C)C(O)C4(O)OCC13C42 (stereo not drawn) | inactive: 27.9 µM |
| CC(=O)OC12CC[N+]3(C)CCCCC3C1=Nc1ccccc12 (stereo not drawn) | inactive: > 100 µM |
| O=C1CCC2CCC1C2 (stereo not drawn) | inactive: > 100 µM |
| c1ccc(Nc2nn3c(CCCCCCCCc4nnc5sc(Nc6ccccc6)nn45)nnc3s2)cc1 | inactive: 32.1 µM |
| Cc1c(/C=N/NC(=S)Nc2ccc(Cl)cc2)c(=O)n(-c2ccccc2)n1C | inactive: 54.5 µM |
| Clc1ccc(/C(=C/c2ccccc2)Cn2ccnc2)cc1 | inactive: 46.1 µM |
| COc1ccc(N2C(=O)c3c(c4[nH]c5ccccc5c4c4ccc(C(C)(C)C)cc34)C2=O)cc1 | inactive: 64.1 µM |
| O=C(Nc1sccc1S(=O)(=O)c1ccc(Cl)cc1)c1ccc(Cl)cc1 | inactive: > 100 µM |
| Cc1cc(C)c(/C=N/NS(=O)(=O)c2ccccc2)c(C)c1 | inactive: > 100 µM |
| Nc1nc(N)c2nc(CNc3ccc(C(=O)NC(CCCNC(=O)c4ccccc4C(=O)O)C(=O)O)cc3)cnc2n1 (stereo not drawn) | active: 0.0225 µM |
| C/C(=N/NC(=S)Nc1cccc(Cl)c1)c1cccc(/C(C)=N\NC(=S)Nc2cccc(Cl)c2)n1 | inactive: 2.13 µM |
| COc1ccc(-c2c(C#N)c(S)n(NS(=O)(=O)c3ccccc3)c(=O)c2C#N)cc1 | inactive: > 100 µM |
| O=C(Cc1nc2ccccc2c(=O)n1-c1c(Cl)cccc1Cl)c1ccncc1 | inactive: 26.3 µM |

| SMILES | GI50 |
| --- | --- |
| N#CN=C(N(Cc1ccccc1)Cc1ccccc1)N(Cc1ccccc1)Cc1ccccc1 | inactive: > 100 µM |
| Cc1nnc2c3c(-c4ccccc4)c(-c4ccccc4)oc3nc(N(C)C)n12 | inactive: > 100 µM |
| NP(=O)(OCC1=CC(=O)c2ccccc2C1=O)N(CCBr)CCBr (stereo not drawn) | inactive: 4.68 µM |
| Cc1ccc(/N=N/c2c(O)c(C(=O)O)cc3ccccc23)c(S(=O)(=O)O)c1 | inactive: > 100 µM |
| NC1=NN(c2ccccc2)C(=O)C1C(=O)CCC(=O)Nc1cccc(C(F)(F)F)c1 (stereo not drawn) | inactive: > 100 µM |
| Cc1ccc(S(=O)(=O)NC(=O)NC(Cc2ccc(O)c(O)c2)C(=O)O)cc1 (stereo not drawn) | inactive: > 100 µM |
| O=C(Nc1ccc(Cl)cc1)c1cc(S(=O)(=O)NC2=Nc3ccc(Cl)cc3C(c3ccccc3)N2)c(SSc2cc(Cl)c(C(=O)Nc3ccc(Cl)cc3)cc2S(=O)(=O)NC2=Nc3ccc(Cl)cc3C(c3ccccc3)N2)cc1Cl (stereo not drawn) | inactive: > 100 µM |
| CCN(CCCl)c1ccc(NC(=O)c2cc(C(=O)NCCN(C)C)cc(C(=O)Nc3ccc(N(CC)CCCl)cc3)c2)cc1 | inactive: 11.9 µM |
| CC(C)(C)OC(=O)NC(Cc1ccc(OCc2ccccc2)cc1)C(=O)NC(CCCCNC(=O)OCc1ccccc1)C(=O)NC(CCCCNC(=O)OCc1ccccc1)C(=O)ON1C(=O)CCC1=O (stereo not drawn) (Boc-Tyr(Bn)-Lys(Cbz)-Lys(Cbz)-OSu; configuration not given here) | inactive: 45.6 µM |
| COC(=O)/C(C#N)=C1\CCC(OC)N1 (stereo not drawn) | inactive: > 100 µM |
| O=C(NCCCNCCNC(=O)c1cc(-c2ccccc2)nc2ccccc12)c1cc(-c2ccccc2)nc2ccccc12 | inactive: 2.35 µM |
| O=C1C=CC2(C=C1)C[C@H](NC(=O)C(F)(F)F)C(=O)O2 | inactive: > 100 µM |
| CCOC(=O)/C(=C/c1cccc(Cl)c1)N(CC)CC | inactive: 58.2 µM |
| O=C1C=CC(=CC=C2C=CN(CCCCCCCCCCC(=O)NCCCCCCCCCCCC(=O)O)C=C2)C=C1 | inactive: > 100 µM |
| CC[C@H](CO)Nc1nc(NCc2ccccc2)c2ncn(C(C)C)c2n1 [SELICICLIB] | inactive: 29.4 µM |
| CCOC(=O)C(NC(=O)c1ccccc1)(Nc1ccc(S(=O)(=O)Nc2cc(C)on2)cc1)C(F)(F)F (stereo not drawn) | inactive: > 100 µM |
| COc1ccc(/C=C2/C(=O)N(C(=O)c3ccc(Cl)cc3)N=C2C)cc1OC | inactive: > 100 µM |
| CC1CC(C)(O)CC(C(O)CC2CC(=O)NC(=O)C2)C1=O (stereo not drawn) [RESACTIN A] | active: 0.0382 µM |
| CC1(C)COC(C23C4C5C2C2C3C4C52I)=N1 (stereo not drawn) | inactive: > 100 µM |
| Cc1ccc(CCCCCOc2ccc(C3=NCCO3)cc2)s1 | inactive: > 100 µM |
| CC(=O)OCC1OC(n2c(=S)n(-c3ccccc3)c(=O)c3cc(Br)ccc32)C(OC(C)=O)C(OC(C)=O)C1OC(C)=O (stereo not drawn) | inactive: > 100 µM |

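Grown in 96-well plates, cells were treated for 48 hours with each compound at five concentrations. Insufficient inhibition: endpoint recorded as highest concentration tested. At the GI50, growth is halved.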 Calls of active or inactive are those of the source. Cut-off read from the data, not from the text of the source: active = GI50 up to about 1.1 µM and inactive = higher. Peptide text beside a SMILES is read from it. * marks the point of attachment. Cbz = O=C(OCc1ccccc1)*; Boc = CC(C)(C)OC(=O)*; OSu = O=C1CCC(=O)N1O*; Bn = c1ccc(C*)cc1
